Data: the antibiotic and cytotoxicity screens of Wong et al. (2023)
The list shows a part of the results.

test system: HSkMC (human skeletal muscle cells); experiment: cytotoxicity call (relative viability < 0.9); details: 10 µM

Compound	cytotoxicity call
C=CCn1cnc2c1c(=O)[nH]c(=O)n2C	inactive
C[C@@H]1CN([C@@H](C)CO)C(=O)c2cc(N(C)C)ccc2O[C@@H](C)CCCCO[C@@H]1CN(C)C(=O)Nc1ccc(C(F)(F)F)cc1	inactive
CO[C@H](CN(C)S(=O)(=O)c1cccc(Cl)c1)[C@H](C)CN([C@H](C)CO)S(=O)(=O)c1cccc(Cl)c1	inactive
Cc1noc(C)c1NC(=O)Nc1cccc2c1O[C@H](CN(C)Cc1ccc(Cl)c(Cl)c1)[C@@H](C)CN([C@@H](C)CO)C2=O	inactive
CC(C)NC(=O)Nc1ccc2c(c1)C(=O)N([C@H](C)CO)C[C@@H](C)[C@H](CN(C)C(=O)C1CCCCC1)OCCCC[C@H](C)O2	inactive
Cn1cnc(S(=O)(=O)N2C[C@@H](O)COC[C@H]3O[C@@H](CC(=O)NCc4cc(F)cc(F)c4)CC[C@@H]32)c1	inactive
C[C@@H]1CN([C@@H](C)CO)C(=O)Cc2cc(NC(=O)Cc3cn(C)c4ccccc34)ccc2O[C@@H]1CN(C)Cc1ccc(C(F)(F)F)cc1	inactive
O=C(Nc1ccccc1)C1=C[C@@H](c2ccc3c(c2)Cc2ccccc2-3)C[C@@H](OCc2ccc(CO)cc2)O1	inactive
CN(C)CC(=O)N[C@H]1C=C[C@H](CC(=O)O)O[C@@H]1CO	inactive
Cc1ccc(S(=O)(=O)N(C)C[C@H]2Oc3c(NC(=O)C4CCOCC4)cccc3C(=O)N([C@H](C)CO)C[C@H]2C)cc1	inactive
Cn1cnc(S(=O)(=O)N2C[C@H](O)COC[C@@H]3O[C@@H](CC(=O)NCc4ccc(F)cc4)CC[C@H]32)c1	inactive
